From patent US5659049A, “Antioxidant, antiphospholipase derivatives of ricinoleic acid” (Virginia Commonwealth University, priority 1995, dated 1997)
Where two headings read alike, the source gives them in different places.

What was measured:
[1] = tested on: PLA2 activities derived from human platelets and human polymorphonuclear leucocytes (PMNs); test: In vitro PLA2 inhibition by fatty acids
Ca++-dependent PLA2s = conditions: 10 μM concentrations
[2] = tested on: PLA2 activities derived from human platelets and human polymorphonuclear leucocytes (PMNs); conditions: to approximately the same extent for the three acids; Ballou and Cheng, Marki and Franson; cited from earlier work

| SMILES | Inhibition of in vitro PLA2 activity [2] | other results |
| --- | --- | --- |
| CCCCC[C@H](O)/C=C/C1=C(CCCCCCC(=O)O)C(=O)CC1 [PGB1, prostaglandin B1] |  | Less inhibitory of PLA2 than the precursor arachidonic acid, by ([1]; compared with arachidonic acid): at least 2 orders of magnitude; Inhibition of Ca++-dependent PLA2s (Ca++-dependent PLA2s): not inhibitory |
| CCCCC/C=C\C/C=C\C/C=C\C/C=C\CCCC(=O)O [arachidonic acid] | inhibited |  |
| CCCCC/C=C\C/C=C\CCCCCCCC(=O)O [linoleic acid] | inhibited |  |
| CCCCCCCC/C=C\CCCCCCCC(=O)O [oleic acid] | inhibited |  |
| CCCCCC[C@@H](O)C/C=C\CCCCCCCC(=O)O [ricinoleic acid, 12-hydroxy-oleic acid] |  | Inhibition of in vitro PLA2 activity ([1]; 12-hydroxylation of oleic acid, recent studies): eliminates the inhibitory activity |
